The supplement of paper PMC8728848
This is one part of the list.

Key:
Test in all cases: glycan array binding signal (z-score within array); higher = stronger binding
Settings in all cases: glycan notation: IUPAC condensed, linker removed
[1] = molecular target: Gal(b1-4)GlcNAc(b1-6)GalNAc
Summary of the method: (§1)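 Negative Z-scores can be read as non-binding. The Z-score is calculated within each array and then averaged across arrays of one protein sequence at different concentrations or buffers and across linkers. Arrays, 3228 in all, were curated from the Consortium for Functional Glycomics database and kept only where the protein sequence was available.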

[2] = molecular target: Gal(b1-4)GlcNAc(b1-6)[Gal(b1-3)]GalNAc
Summary of the method: as §1

[3] = molecular target: Gal(b1-4)GlcNAc(b1-6)[Gal(b1-4)GlcNAc(b1-3)]GalNAc
Summary of the method: as §1

Gal(b1-4)GlcNAc6P = molecular target: Gal(b1-4)GlcNAc6P
Summary of the method: as §1

Gal(b1-6)Gal = molecular target: Gal(b1-6)Gal
Summary of the method: as §1

Gal3S(b1-3)GalNAc = molecular target: Gal3S(b1-3)GalNAc
Summary of the method: as §1

Gal3S(b1-3)GlcNAc = molecular target: Gal3S(b1-3)GlcNAc
Summary of the method: as §1

[4] = molecular target: Gal3S(b1-3)[Fuc(a1-4)]GlcNAc
Summary of the method: as §1

Gal3S(b1-4)Glc = molecular target: Gal3S(b1-4)Glc
Summary of the method: as §1

Gal3S(b1-4)Glc6S = molecular target: Gal3S(b1-4)Glc6S
Summary of the method: as §1

Gal3S(b1-4)GlcNAc = molecular target: Gal3S(b1-4)GlcNAc
Summary of the method: as §1

[5] = molecular target: Gal3S(b1-4)[Fuc(a1-3)]Glc6S
Summary of the method: as §1

[6] = molecular target: Gal3S(b1-4)[Fuc(a1-3)]GlcNAc
Summary of the method: as §1

[7] = molecular target: Gal3S(b1-4)[Fuc(a1-3)]GlcNAc6S
Summary of the method: as §1

Gal3S4S(b1-4)GlcNAc = molecular target: Gal3S4S(b1-4)GlcNAc
Summary of the method: as §1

Gal3S6S(b1-4)GlcNAc = molecular target: Gal3S6S(b1-4)GlcNAc
Summary of the method: as §1

Gal3S6S(b1-4)GlcNAc6S = molecular target: Gal3S6S(b1-4)GlcNAc6S
Summary of the method: as §1

Gal4S(b1-4)GlcNAc = molecular target: Gal4S(b1-4)GlcNAc
Summary of the method: as §1

Gal4S6S(b1-4)GlcNAc = molecular target: Gal4S6S(b1-4)GlcNAc
Summary of the method: as §1

Gal6P(b1-4)GlcNAc = molecular target: Gal6P(b1-4)GlcNAc
Summary of the method: as §1

Gal6S(b1-3)GlcNAc = molecular target: Gal6S(b1-3)GlcNAc
Summary of the method: as §1

Gal6S(b1-3)GlcNAc6S = molecular target: Gal6S(b1-3)GlcNAc6S
Summary of the method: as §1

Gal6S(b1-4)Glc = molecular target: Gal6S(b1-4)Glc
Summary of the method: as §1

B1: FimA-N3 (Actinomyces oris) (protein)
chain: MHHHHHHSSGVDLGTENLYFQSNAGLQGAQFQLYKAKNAYANTCSNEKEGAPIAINGQTTLTTDAQGAIDIKGLFISDSIDGADRDNQVNAMERCYVLVETKAPAGYVLPAGNGAATPVKVKAGEETTDN
glycan array binding signal (z-score) [1]: 0.068
glycan array binding signal (z-score) [2]: 1.14
glycan array binding signal (z-score) [3]: 0.729
glycan array binding signal (z-score) (Gal(b1-4)GlcNAc6P): -0.278
glycan array binding signal (z-score) (Gal(b1-6)Gal): -0.439
glycan array binding signal (z-score) (Gal3S(b1-3)GalNAc): -0.184
glycan array binding signal (z-score) (Gal3S(b1-3)GlcNAc): -0.003
glycan array binding signal (z-score) [4]: 0.055
glycan array binding signal (z-score) (Gal3S(b1-4)Glc): 0.681
glycan array binding signal (z-score) (Gal3S(b1-4)Glc6S): -0.381
glycan array binding signal (z-score) (Gal3S(b1-4)GlcNAc): 0.9
glycan array binding signal (z-score) [5]: 1.49
glycan array binding signal (z-score) [6]: 0.283
glycan array binding signal (z-score) [7]: 4.34
glycan array binding signal (z-score) (Gal3S4S(b1-4)GlcNAc): -0.023
glycan array binding signal (z-score) (Gal3S6S(b1-4)GlcNAc): 1.16
glycan array binding signal (z-score) (Gal3S6S(b1-4)GlcNAc6S): -0.339
glycan array binding signal (z-score) (Gal4S(b1-4)GlcNAc): -0.198
glycan array binding signal (z-score) (Gal4S6S(b1-4)GlcNAc): -0.275
glycan array binding signal (z-score) (Gal6P(b1-4)GlcNAc): 0.054
glycan array binding signal (z-score) (Gal6S(b1-3)GlcNAc): 0.033
glycan array binding signal (z-score) (Gal6S(b1-3)GlcNAc6S): -0.446
glycan array binding signal (z-score) (Gal6S(b1-4)Glc): 0.552
